Test results published in PubChem BioAssay AID463173 (ICCB-Longwood Screening Facility, Harvard Medical School, 2010).
Hit rate of the full screen: of about 52,000 compounds, about 1,700 (3.3%) were called active. Rule as the data show it: active = survival mostly below about 52% (no sharp cut-off); inactive = mostly above about 56%. The list shows a part of the results.

These compounds were tested on Wild type (assay: S. aureus survival, RN4220 and DeltatarO strains – OD600, teichoic acid synthesis inhibitors, primary screen (AID 463173)). Conditions: S. aureus RN4220 wild type/DeltatarO growth, OD600, 18 h, active compounds read low, screened at 18.75 µg/mL (by protocol).

| Compound | survival |
| --- | --- |
| COc1ccc(N2CCN(C(=O)c3cc(NS(=O)(=O)c4ccc(F)cc4)ccn3)CC2)cc1 | inactive: 53% |
| CCOc1ccc(CCNC(=O)CCN2N=C(c3ccc(OC)cc3)CCC2=O)cc1OCC | inactive: 55% |
| COc1ccc(-c2oc3ncn4nc(-c5ccccc5Cl)nc4c3c2-c2ccc(OC)cc2)cc1 | inactive: 78% |
| Cc1cc(Cl)ccc1NC(=O)CCn1nc(C)c2c(C)n(-c3ccccc3)nc2c1=O | inactive: 68% |
| Cc1nc(SCC(=O)OCN2C(=O)c3ccccc3C2=O)n[nH]1 | inactive: 106% |
| Cc1cccc(OCCSc2nc3ccc(NC(=O)COc4ccccc4F)cc3s2)c1 | inactive: 92% |
| COc1ccc(Cn2ccc3nc(C)c(C(=O)NCc4ccc(C)cc4)cc3c2=O)cc1 | inactive: 47% |
| CC1(C)CC(=O)c2cc(-c3nc(-c4ccc(Cl)cc4)cs3)c(=O)n(-c3ccc(F)cc3)c2C1 | inactive: 76% |
| CCOc1ccc(NC(=O)Cn2cc(S(=O)(=O)N3CCN(c4ccccc4F)CC3)c3ccccc3c2=O)cc1 | inactive: 71% |
| O=C(NCCc1csc2nc(-c3cccc(F)c3)nn12)c1ccc(Br)o1 | inactive: 64% |
| COc1ccc(-c2noc(-c3ccc(N4CCC(C)CC4)c([N+](=O)[O-])c3)n2)cc1OC | inactive: 89% |
| COc1ccc(N(CC(=O)N2CCN(c3ccc(F)cc3)CC2)S(=O)(=O)c2c(C)n[nH]c2C)cc1 | inactive: 91% |
| CC1(C)Cc2c(c(-c3ccccc3)[nH]c(=O)c2C#N)CO1 | inactive: 104% |
| Cc1ccc(CNC(=O)CSc2nc3n[nH]c(C)c3c(=N)n2-c2cccc(C)c2)cc1 | inactive: 133% |
| CCCCNc1nc2c(c(=O)n(Cc3ccc(Cl)c(Cl)c3)c(=O)n2C)n1C | active: 1% |
| CCc1ccc(NC(=O)CCNS(=O)(=O)c2ccc3c(c2)CCCC(=O)N3)cc1 | inactive: 87% |
| COc1cccc(C(=O)Nc2c3c(nn2-c2ccc(Cl)cc2)CS(=O)(=O)C3)c1 | inactive: 84% |
| CCN(CC)C(C)C(=O)Nc1c(C)cccc1C (stereo not drawn) | inactive: 109% |
| Cc1ccc(CNC(=O)c2cccc(-n3cnc4cccnc43)c2)cc1 | inactive: 97% |
| CCOC(=O)c1scc(-c2ccccc2)c1S(=O)(=O)N1CCN(c2ccccc2OC)CC1 | inactive: 71% |
| COc1ccc(NC(=O)c2oc3ccc(S(=O)(=O)N(C)C4CCCCC4)cc3c2C)cc1 | inactive: 73% |
| Cc1ccc(NC(=O)C(Cc2ccccc2)n2cccc2)cc1C (stereo not drawn) | active: 13% |

| Compound | survival |
| --- | --- |
| Cc1ccc(-c2nc3ccccn3c2Nc2ccc3c(c2)OCO3)o1 | inactive: 48% |
| O=C(/C=C/c1cn(CC(O)CN2CCCCCC2)c2ccccc12)c1ccc(Br)cc1 (stereo not drawn) | active: 14% |
| C=CCC(CC=C)(CNC(=O)C(=O)Nc1ccc(C(=O)OCC)cc1)c1ccccc1 | inactive: 93% |
| COC(=O)c1ccccc1NC(=O)c1cc2c(-c3ccc(OC)c(OC)c3)nn(C)c2s1 | inactive: 88% |
| CCOC(=O)c1cc(-c2ccc(C)cc2)n(CC(=O)NC2CCCCCC2)c1C | inactive: 92% |
| COc1cccc(NS(=O)(=O)c2ccc3c(c2)CCCN3C(=O)C2CCC2)c1 | inactive: 143% |
| Cc1cc2nc(-c3cccc(NC(=O)CSc4ccc(Cl)cc4)c3)oc2cc1C | inactive: 74% |
| COc1ccc(-c2nn(-c3cccc([N+](=O)[O-])c3)c3c2cnc2cc4c(cc23)OCO4)cc1 | inactive: 68% |
| CCCN(C(=O)c1cc2c(s1)-c1c(C)cccc1OC2)c1ccc(OCC)cc1 | inactive: 95% |
| CC(C)c1ccc(Nc2nc3c(S(=O)(=O)c4ccc(Br)cc4)nnn3c3ccsc23)cc1 | inactive: 76% |
| COc1ccc(C2c3[nH]c4ccc(OC)cc4c3CCN2C(=O)Nc2ccccc2)cc1 (stereo not drawn) | inactive: 78% |
| O=C(O)CCNc1ccc(Cl)cn1 | inactive: 86% |
| CN1CCC(OC(=O)c2cc3cc(Cl)cc(Cl)c3oc2=O)CC1 | inactive: 105% |
| Cc1cccc(-c2c3c(=O)n(C)c(=O)n(C)c3c3cnc4ccccc4n23)c1 | inactive: 89% |
| Cc1c(NC(=O)Nc2ccc(C#N)cc2)c(=O)n(-c2ccccc2)n1C | inactive: 124% |
| O=C(Nc1c(Cl)cccc1Cl)c1cc(-c2cccc(O)c2)on1 | active: 5% |
| Cc1ccc(NC(=O)Cn2cc(S(=O)(=O)c3ccccc3)c(=O)c3cc4c(cc32)OCO4)cc1 | inactive: 130% |
| COc1ccccc1Nc1nn2c(=O)c3ccc(C(=O)NC(C)c4ccccc4)cc3nc2s1 (stereo not drawn) | inactive: 85% |
| NC1(C2CCCCC2=O)CCCCC1 (stereo not drawn) | inactive: 107% |
| Cc1cccc(C(=O)Nc2ccc(OCc3cc(=O)n4c5c(sc4n3)CCCC5)cc2)c1 | inactive: 80% |
| O=C(N1CCOCC1)N1CCc2ccccc21 | inactive: 109% |
| CCn1c(CNc2cccc(Cl)c2)nnc1SCc1ccccc1 | inactive: 105% |

| Compound | survival |
| --- | --- |
| COC(=O)Cc1c(C)c2cc3c(c(C)c2oc1=O)OCN(CCc1ccc(OC)cc1)C3 | inactive: 87% |
| CCN(CCN(C)C)C(=O)C1CCN(S(=O)(=O)c2c(C)noc2/C=C/c2ccccc2F)CC1 | inactive: 126% |
| Cc1cc(C)c2c(n1)SCCN2C(=O)Nc1ccc(C(=O)Nc2ccc(C(C)C)cc2)cc1 | inactive: 67% |
| CCN(CC)c1ccc2cc(-c3nc(-c4cc(OC)c(OC)c(OC)c4)no3)c(=O)oc2c1 | inactive: 100% |
| Cc1cc(C)c(NC(=O)Cn2nnc(-c3nc(-c4ccccc4)no3)c2N)c(C)c1 | inactive: 59% |
| O=C(OC(C(=O)NC1CCCCC1)c1ccccc1)c1ccco1 (stereo not drawn) | inactive: 111% |
| CC(=O)c1ccc(NC(=O)c2nc3nc(C)cc(C(F)F)n3n2)cc1 | inactive: 69% |
| CCOc1ccc(-n2nc(CO)c(C(=O)NCc3cccc(OC)c3)n2)cc1 | inactive: 81% |
| Cc1cc(C)cc(-n2ccn(CC(=O)Nc3ccccc3F)c(=O)c2=O)c1 | inactive: 82% |
| COC(=O)c1ccc(NC(=O)COC(=O)CSc2nc(C)cc(C)n2)cc1 | inactive: 96% |
| COc1cc2cc(CNc3ccccc3)c(=O)n(CC(=O)Nc3cc(C)cc(C)c3)c2cc1OC | inactive: 91% |
| O=C(CCC1N=C2c3ccccc3N=C(SCc3ccc(F)cc3)N2C1=O)NC1CCCCC1 (stereo not drawn) | inactive: 71% |
| COc1ccc(-c2cc(=O)oc3c4c(ccc23)OCN(Cc2cccc(OC)c2)C4)cc1 | inactive: 96% |
| COC(=O)c1ccccc1NC(=O)Cn1c(=O)n(CCCC(=O)NCc2ccccc2OC)c(=O)c2ccccc21 | inactive: 131% |
| Cc1ccc(C)c(NC(=O)C(c2ccccc2)N2Cc3ccccc3C2=O)c1 (stereo not drawn) | inactive: 128% |
| CCOC(=O)C1CCCN(c2c3c(nc4cc(-c5ccc(F)cc5)nn24)CCCC3)C1 (stereo not drawn) | inactive: 121% |
| COc1ccccc1NC(=O)C1CCN(c2cnccn2)CC1 | inactive: 86% |
| CC(=O)N1CCCc2cc(S(=O)(=O)N3CCN(c4cccc(C(F)(F)F)c4)CC3)ccc21 | inactive: 113% |
| CSc1ncc(C(=O)Nc2cc(Cl)ccc2C)c(-c2ccccc2)n1 | inactive: 88% |
| Cc1ccccc1-c1noc(-c2cc(-c3ccc(F)cc3)n[nH]2)n1 | inactive: 83% |
| Cc1ccc(NC(=O)C2CCC(CNS(=O)(=O)c3ccc4c(c3)CCCC(=O)N4)CC2)c(C)c1 (stereo not drawn) | inactive: 75% |
| COc1ccc(CN(Cc2nc3ccccc3c(=O)[nH]2)C(=O)Nc2ccccc2)cc1 | inactive: 119% |

| Compound | survival |
| --- | --- |
| CCOC(=O)c1ccc(NC(=O)CSc2nc3c([nH]c4ccccc43)c(=O)n2C)cc1 | inactive: 59% |
| Cc1cn2c(=O)cc(COc3ccccc3NC(=O)c3ccc(Cl)cc3)nc2s1 | inactive: 85% |
| Cc1ccc2oc(-c3ccc(Cl)c(NC(=O)c4ccc(OC(C)C)cc4)c3)nc2c1 | inactive: 82% |
| CCCCc1nc2ccccc2n1CC(=O)N(COCC)c1c(C)cccc1CC | active: -1% |
| Cc1cc(C)cc(NC(=O)C2CCN(S(=O)(=O)c3ccc4c(c3)oc(=O)n4C)CC2)c1 | inactive: 90% |
| O=C(/C=C/c1ccco1)NC(=S)NC1CCCCC1 | inactive: 107% |
| Cc1ccc(S(=O)(=O)N(CC(=O)Nc2ccc3c(c2)OCO3)c2ccc(C)c(Cl)c2)cc1 | inactive: 91% |
| CC(C)c1ccc(Nc2c(-c3ccco3)nc3ccccn23)cc1 | inactive: 33% |
| COc1cc(NC(=O)c2ccc(-n3cnc4cccnc43)cc2)cc(OC)c1 | inactive: 66% |
| COc1ccc(/C=C/C(=O)Nc2ccc3nc(N4CCCCC4)cc(C)c3c2)cc1OC | inactive: 76% |
| CC1Cc2ccccc2N1C(=O)CSc1nnc(-c2cccc(Cl)c2)o1 (stereo not drawn) | inactive: 37% |
| CCOC(=O)c1cc(NC(=O)c2ccc(OC)cc2)c(=O)n2c1oc1ccc(Cl)cc12 | inactive: 77% |
| CCn1c(CNC(=O)C23CC4CC(CC(C4)C2)C3)nnc1SCC(=O)Nc1ccc(F)cc1 | inactive: 79% |
| O=C(CCc1ccccc1)NCc1ccc2c(c1)CCN2C(=O)c1ccc(Cl)cc1 | inactive: 85% |
| CCOc1ccc(CCNC(=O)c2cc3c(=O)n(C)c4ccccc4c3n2C)cc1 | inactive: 78% |
| O=c1[nH]c2ccc(NCc3ccccc3F)cc2[nH]1 | inactive: 84% |
| CCc1cccc(NC(=O)CC2Oc3ccc(C)cc3NC2=O)c1 (stereo not drawn) | inactive: 89% |
| Cc1ccc(NC(=O)CC2Sc3ccccc3NC2=O)c(Br)c1 (stereo not drawn) | inactive: 138% |
| CC(Cc1ccccc1)N=C1NS(=O)(=O)c2ccccc21 (stereo not drawn) | inactive: 109% |
| O=C(NCCS(=O)(=O)N1CCN(c2cccc(Cl)c2)CC1)c1cc(=O)c2ccccc2o1 | inactive: 74% |
| C=C(C)Cn1c(SCC(=O)Nc2cccc(Cl)c2)nc2sc3c(c2c1=O)CCCC3 | inactive: 89% |
| O=C(NCCC1=CCCCC1)c1ccc2c(c1)N(Cc1ccc(Cl)cc1)C(=O)c1ccccc1S2=O (stereo not drawn) | inactive: 90% |
